Our source for the binding signal values is article PMC10668032.

Some of the results follow. At the low end of the ranking, values are background and their order means little.

The assay deals with SIX1 homeodomain (reference allele) (UniProt Q15475). Kind of assay: universal protein binding microarray. The note with it: Universal all-10-mer PBM (8x60K, AMADID 030236), 300 nM GST-tagged protein, Alexa Fluor 488 anti-GST; buffer, salt, pH and temperature not stated; high values mean tight binding; most listed sequences are background and not binding sites; double strand, one strand shown.
Consider CCTCCCGC, for which the binding signal was -0.0902 E-score.
In the case of CCTTCGGC it was -0.144 E-score; in that of ACGTGTCT, 0.0274 E-score.
As to GTAGGACA, the binding signal was -0.0305 E-score.
In the case of ACATCTTG it was -0.0455 E-score; in that of ACACGTAG, 0.00289 E-score; in that of GAAAGCAC, -0.139 E-score.
AAATACCT: the binding signal amounted to 0.173 E-score.
In the case of CCATTGAA it was -0.207 E-score; in that of GGCCCGAC, -0.122 E-score; in that of GACCGTAA, -0.161 E-score.
The same measure for CCCGTCGG: -0.00119 E-score; for TCGCCTAA: 0.0245 E-score; for ATCTGACA: 0.213 E-score.
For the sequence ATTCCCCG, the binding signal amounted to 0.0197 E-score.
The same measure for AAGACATA: 0.0292 E-score.
On to CGGAGCAA, for which the binding signal is -0.265 E-score.
In the case of GGAGTAAC it was -0.207 E-score; in that of AGTTCCTA, -0.113 E-score; in that of GGTAAGAA, -0.119 E-score.
Take CGAACATA: the binding signal turned out to be 0.0495 E-score.
The same measure for AGTCCTTA: -0.122 E-score; for GGCTCCCA: -0.265 E-score.
The same measure for AACGGAAG: -0.13 E-score.
The same measure for GCTGAAGC: -0.208 E-score; for AGAAAAGG: -0.169 E-score.
As to ATGCTTCA, the binding signal is -0.108 E-score.
In the case of ACTCATAC it was 0.0727 E-score.
The same measure for GGTGGACA: -0.141 E-score; for TGCCCAAA: -0.072 E-score.
The same measure for ACTGCTGG: -0.234 E-score; for ATAGTCAT: 0.0914 E-score.
With CACCTAGG, the binding signal is 0.0607 E-score.
For the sequence GCGTACAC, the binding signal stood at 0.0476 E-score.
As for GCTTACCC, the binding signal was -0.0147 E-score.
The same measure for AATGAGCC: 0.158 E-score; for CCTCTACA: -0.0413 E-score; for CGTTTAGA: -0.0855 E-score.
The same measure for CACGAGTA: 0.144 E-score.
Take ACTATACT: the binding signal turned out to be 0.211 E-score.
With GTGATGGA, the binding signal came out at 0.0692 E-score.
The same measure for AACTACAC: 0.169 E-score.
The same measure for GAATTCTA: -0.11 E-score; for ACGTCTAA: 0.024 E-score.
The same measure for CTGAGCTC: -0.0902 E-score; for CACCTGGG: 0.155 E-score; for GCACCAAC: -0.154 E-score.
Consider CGAGTACG, for which the binding signal was -0.071 E-score.
For ATCAAAAT, the binding signal stood at 0.0502 E-score.
For the sequence CCCCTTGA, the binding signal came to 0.187 E-score.
Regarding AAGCGATC, the binding signal was 0.239 E-score.
In the case of CTACGTTA, the binding signal is -0.124 E-score.
Consider CCAAGACG, for which the binding signal was -0.0177 E-score.
Consider ACAACAGA, for which the binding signal is -0.255 E-score.
In the case of AAGATTCC it was -0.0643 E-score; in that of ATGCAAAC, -0.057 E-score.
The same measure for GCCTTACA: -0.11 E-score.
As to ATAGTACC, the binding signal is 0.129 E-score.
For GAGCTAAC, the binding signal is -0.132 E-score.
In the case of CTTTGCGA it was -0.0156 E-score; in that of AAAGGATC, 0.279 E-score; in that of GATGCACC, 0.0091 E-score.
In the case of AAACAAGT it was -0.228 E-score.
The same measure for AGCTGCTA: -0.115 E-score; for CGCCTAAC: -0.0471 E-score.
Turning to AGATCCGG, the binding signal worked out at 0.358 E-score.
In the case of ACATCAGC it was -0.106 E-score; in that of AAAAAATC, -0.168 E-score.
As for CAGATGAG, the binding signal is 0.203 E-score.
As for AGGAAACA, the binding signal is -0.15 E-score.
As for ACTGGAGG, the binding signal is -0.0329 E-score.
Regarding GCGACGTA, the binding signal was 0.0775 E-score.
Regarding ATAAAAGG, the binding signal is -0.0649 E-score.
Take GAGGCAAC: the binding signal was -0.07 E-score.
In the case of CGATCGCG it was 0.249 E-score; in that of CGCCGCGC, -0.126 E-score; in that of CGGAGAGC, 0.0276 E-score.
For the sequence ATCGCAGG, the binding signal was found to be 0.181 E-score.
In the case of CAAAAGTC it was -0.243 E-score.
With TCATCCCA, the binding signal was determined as 0.0923 E-score.
On to CTACTAGA, for which the binding signal is 0.109 E-score.
The same measure for ACCAGGCA: 0.0954 E-score; for ACTGTTTA: -0.124 E-score; for CGACCTCG: -0.0668 E-score.
As to CCATGAAG, the binding signal stood at 0.0749 E-score.
The same measure for ACACGAAG: 0.0155 E-score; for CGGGCAGC: 0.02 E-score; for CTACATTC: -0.158 E-score.
For the sequence ACCCTGTC, the binding signal is -0.0544 E-score.
In the case of CTAATTTC it was -0.172 E-score.
The same measure for CTAAACGC: -0.175 E-score; for ACCCGGTG: 0.26 E-score; for ACTCGGTC: -0.198 E-score.
As for AACGGGGA, the binding signal turned out to be 0.0258 E-score.
Turning to ACCAGGAC, the binding signal is -0.104 E-score.
The same measure for ACAACAGG: -0.143 E-score; for AACTTTTC: -0.267 E-score; for GACATGAA: -0.213 E-score.
Regarding CGTGCAGA, the binding signal is -0.0652 E-score.
For the sequence ACAAAGAC, the binding signal is -0.205 E-score.
As to AACTTATG, the binding signal is -0.295 E-score.
For the sequence CCACAAAG, the binding signal is -0.0519 E-score.
In the case of CACGTGGA it was 0.116 E-score; in that of CGAGATGA, 0.187 E-score.
On to AAACGCTT, for which the binding signal is -0.28 E-score.
With AGGACCAC, the binding signal was -0.0631 E-score.
With CAGGTCCC, the binding signal was -0.238 E-score.
For AGCCACAG, the binding signal was -0.177 E-score.
In the case of GACACTTA it was 0.0918 E-score.
CGCGCACA: the binding signal was -0.00883 E-score.
In the case of GCCGTGCA it was -0.298 E-score; in that of CTTTGTCA, -0.139 E-score; in that of GCCGTAGC, -0.0538 E-score.
As to ATCGCCGG, the binding signal turned out to be 0.253 E-score.
In the case of AGCTGTAT, the binding signal was 0.186 E-score.
GTCGTTTA: the binding signal was -0.127 E-score.
In the case of CGTGAAGA it was -0.0754 E-score; in that of ACTATTTG, -0.216 E-score; in that of ACTAGCGC, -0.0433 E-score.
In the case of TGACGTCA it was -0.117 E-score.
In the case of CCGCAACA, the binding signal is -0.0989 E-score.
The same measure for CATGGGGC: -0.0135 E-score; for CCAATCCC: 0.153 E-score; for TATCTCCA: 0.282 E-score.
In the case of ACGAAGGA, the binding signal was -0.0331 E-score.
In the case of GAATAGGA it was 0.0357 E-score; in that of CCCCGAGA, 0.113 E-score; in that of GCTTCCGA, -0.0513 E-score.
CTGGAAAG: the binding signal was -0.207 E-score.
In the case of TCTTTGCA it was -0.0858 E-score; in that of ACAAAACG, -0.193 E-score.
Consider ACTCCCCT, for which the binding signal was 0.22 E-score.
The same measure for AAAGTATT: 0.13 E-score; for CTCCGCAC: -0.153 E-score.
GTATCCTA: the binding signal is 0.409 E-score.
The same measure for ATTTACCC: 0.0509 E-score; for GATGCTGC: 0.0718 E-score; for GTTAATTA: -0.0179 E-score.
The same measure for ACGACACA: -0.0666 E-score; for GGACTCCA: -0.161 E-score; for CCGCTCAA: 0.0831 E-score.
As to AGAATTAT, the binding signal is -0.029 E-score.
The same measure for GTCCCAAA: -0.232 E-score.
In the case of GGACCCAA it was -0.0805 E-score; in that of GCGTAAGA, -0.178 E-score.
The same measure for CTTGCGGA: -0.0932 E-score.
Regarding GAACGATA, the binding signal was 0.383 E-score.
As to GCTCCGCA, the binding signal was -0.282 E-score.
In the case of AGAGCCAG it was -0.159 E-score; in that of GGACTTGA, -0.105 E-score; in that of GATACATC, 0.43 E-score.
On to CCGTAAAC, for which the binding signal was 0.0655 E-score.
In the case of ATACCAGA it was 0.299 E-score.
In the case of CTGGGAAG it was -0.14 E-score; in that of ATGATACG, 0.48 E-score; in that of AGTGAGAC, 0.198 E-score.
In the case of GAAAGCGC it was -0.169 E-score; in that of ACCCCGAG, 0.235 E-score.
CTAACTAA: the binding signal was -0.138 E-score.
In the case of ATGCGTCC it was -0.147 E-score.
The same measure for ACGGGTAC: 0.0571 E-score; for ACCCAACG: -0.158 E-score.
In the case of ATCCCCAC it was 0.347 E-score; in that of ATCTCATG, 0.197 E-score; in that of GCTTGAAA, -0.23 E-score.
ATAGTAGG: the binding signal was determined as 0.107 E-score.
For CTGTGAAG, the binding signal was -0.0497 E-score.
In the case of CCGCACGC it was -0.127 E-score; in that of ATAGCATC, 0.158 E-score; in that of CGGCATCC, 0.127 E-score.
In the case of AGACCTTC it was -0.0709 E-score; in that of GGTTTGAC, -0.0831 E-score.
In the case of AGAACCTC, the binding signal is -0.18 E-score.
As to AAGTTGAC, the binding signal is -0.166 E-score.
On to CGCCTCTA, for which the binding signal was -0.0629 E-score.
On to AAGGTGTG, for which the binding signal came out at 0.145 E-score.
The same measure for CCCGGCCC: 0.0915 E-score; for GGCTCATA: 0.161 E-score.
In the case of CGGAAAAA it was -0.213 E-score; in that of GGTGCGAC, -0.148 E-score; in that of CCTAGAGC, -0.159 E-score.
Turning to ATCGCGAT, the binding signal worked out at 0.334 E-score.
The same measure for CACGATCC: 0.342 E-score; for CGCATGGC: 0.0215 E-score; for GGTCTAGA: 0.0895 E-score.
Take CAACACGG: the binding signal is 0.135 E-score.
As to ACACAGCT, the binding signal was -0.139 E-score.
In the case of CCGGTTCA, the binding signal stood at 0.0726 E-score.
The same measure for CCTAGTGC: -0.141 E-score; for AGTACGAG: 0.0399 E-score.
Consider GATTGAGA, for which the binding signal is 0.151 E-score.
Take GAGAGGGC: the binding signal is -0.094 E-score.
For CTGTTTGC, the binding signal is -0.124 E-score.
In the case of ACGTTCGC it was -0.265 E-score; in that of ATAAGAAT, -0.0363 E-score; in that of GTCAACGA, -0.152 E-score.
With CGTACGCC, the binding signal is -0.192 E-score.
As to ACGCGCAT, the binding signal amounted to 0.0842 E-score.
For GGGCCTCA, the binding signal is -0.353 E-score.
For the sequence ATTTAAGA, the binding signal was -0.138 E-score.
For AGATCATA, the binding signal turned out to be 0.323 E-score.
In the case of ATGTCTGG it was -0.00231 E-score; in that of CGCCCTCA, -0.136 E-score; in that of AACAACAT, -0.322 E-score.
The same measure for AATTACTA: -0.137 E-score.
The same measure for CCCTCGGC: -0.0499 E-score; for AGTCCATA: -0.0497 E-score; for AAGCGCTT: -0.108 E-score.
For the sequence AATGATCT, the binding signal was 0.369 E-score.
As to CTAGCCTC, the binding signal is -0.124 E-score.
Take AAGTTACT: the binding signal was -0.142 E-score.
The same measure for AAACTCCT: -0.138 E-score; for ACGCACGC: -0.0812 E-score.
In the case of CAATTTCA it was -0.0969 E-score; in that of CGCGTTTC, -5e-06 E-score.
Consider CAACCAAC, for which the binding signal is -0.19 E-score.
In the case of GTTTCCAA it was -0.245 E-score.
Take AATAGGTC: the binding signal is -0.00413 E-score.
In the case of AACGGAAT it was -0.112 E-score.
